Drawing on PubChem BioAssay (NCI), this text covers GI50 and TGI for three compounds.

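Exposure lasted 48 hours, with cells grown in 96-well plates and compounds tested at five concentrations. The concentration for 50% growth inhibition is given as GI50. TGI marks complete inhibition of growth.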

For the experiment, the system named is NCI-H322M lung. Nature of the experiment: NCI-60 cell line screen, 48 h.
With `CC(=O)Nc1cccc(Nc2nc(NCc3ccccc3)c3ccccc3n2)c1`, the GI50 was 2.34 µM and the TGI amounted to 7.68 µM.
The corresponding values for `O=C(NCCCCC(c1ccc(F)cc1)c1ccc(F)cc1)Nc1ccc([N+](=O)[O-])c(C(F)(F)F)c1` are 2.5 µM and 9.09 µM.
The corresponding values for `O=c1nc(-c2ccccc2)cc(-c2cc3ccccc3nc2Cl)[nH]1` are 12.3 µM and 25.3 µM.
